Data published in publication PMC6919601, “Identification of Plasmodium dipeptidyl aminopeptidase allosteric inhibitors by high throughput screening” (PLoS ONE, 2019).
Hit rate of the full screen: of about 110,000 compounds, about 230 (0.21%) showed an effect of 50% or more. This is one part of the list.

Biological target: DPAP1 (Plasmodium falciparum, UniProt Q8IIJ9)
Experiment: primary screen, percent inhibition; read by cleavage of a fluorogenic dipeptide substrate; higher = more effect of the substance
Parameters: species or system P. falciparum D10 trophozoite lysates; single well
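Note: 30 min substrate incubation versus DMSO and 10 µM JCP410 controls.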

Sequence of DPAP1 (Q8IIJ9 whole entry, looked up): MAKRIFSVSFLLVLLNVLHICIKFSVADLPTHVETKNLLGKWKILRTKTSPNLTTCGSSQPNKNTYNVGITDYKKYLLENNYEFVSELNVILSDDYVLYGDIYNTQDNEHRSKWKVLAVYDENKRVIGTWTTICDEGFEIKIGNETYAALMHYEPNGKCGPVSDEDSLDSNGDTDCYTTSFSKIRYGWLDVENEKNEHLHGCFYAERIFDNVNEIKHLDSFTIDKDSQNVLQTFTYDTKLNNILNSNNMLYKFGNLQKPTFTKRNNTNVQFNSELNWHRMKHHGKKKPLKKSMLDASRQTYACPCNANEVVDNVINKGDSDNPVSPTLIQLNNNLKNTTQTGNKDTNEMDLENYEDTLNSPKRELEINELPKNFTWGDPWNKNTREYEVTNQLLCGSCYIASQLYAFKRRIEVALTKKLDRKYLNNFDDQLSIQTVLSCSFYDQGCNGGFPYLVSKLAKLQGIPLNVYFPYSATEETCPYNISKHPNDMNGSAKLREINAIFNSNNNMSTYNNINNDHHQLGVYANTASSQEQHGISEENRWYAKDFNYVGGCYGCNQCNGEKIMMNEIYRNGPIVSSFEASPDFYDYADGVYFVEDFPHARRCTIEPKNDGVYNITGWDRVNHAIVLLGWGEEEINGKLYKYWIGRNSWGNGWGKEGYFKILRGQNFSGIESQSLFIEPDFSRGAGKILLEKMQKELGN

Structure (SMILES)	% Inhibition @ 10 uM [%]
Nc1nc(NCc2cccc(Br)c2)nn1-c1ccccc1	-5.34
CCC1CCC(NCCc2c[nH]c3ccccc23)CC1 (centres unmarked)	3.48
O=S(=O)(c1ccc(F)cc1)N1CCc2ccccc2C1	-1.22
O=C(CNS(=O)(=O)c1cccs1)NC1CCCc2ccccc21 (centres unmarked)	-2.12
CC(C)N(Cc1nc(-c2ccccc2)no1)C(=O)Cc1ccccc1	3.06
COc1ccc(-c2noc(CN(C(=O)COc3ccc(Br)cc3C)C(C)C)n2)cc1	-6.56
CC(C)c1ccccc1NC(=O)c1ccco1	33.3
CCOCCCNC(=O)c1oc2ccc3c(c2c1C)C(=O)CC1(CCCCC1)O3	0.623
CC(=O)c1c(C)n(Cc2ccco2)c2ccc(O)cc12	-3.71
CSc1ncc(Cl)c(C(=O)N2CCC(Cc3ccccc3)CC2)n1	-4.64
COc1cc(-c2nnc3n(CCCOC(C)C)c(=O)c4ccccc4n23)cc(OC)c1O	1.68
Cc1ccc(C(=O)NCc2ccc(S(N)(=O)=O)cc2)o1	0.13
O=C(Nc1ccccc1[N+](=O)[O-])c1cccc(S(=O)(=O)N2CCOCC2)c1	4.82
O=C(c1ccccc1[N+](=O)[O-])N1CCCCC1	4.12
Cc1ccc(C(=O)n2c(C)c(C)c(C)c(C#N)c2=O)cc1	-0.725
COC(=O)C1=CN(CC2CCCO2)C=C(C(=O)OC)C1c1cccs1 (centres unmarked)	3.43
O=C(COCc1cc(-c2cccs2)on1)NCCc1c[nH]c2ccccc12	-4.96
C=CCC1(C#N)C(SC)=NC2=C(C(=O)CC(C)(C)C2)C1c1ccc(Br)cc1 (centres unmarked)	0.847
COc1cc(C(=O)NCc2cn3ccccc3n2)cc(OC)c1OC	1.68
COCc1cc(C)nc(SCC(=O)Nc2nc(-c3ccc(Br)cc3)cs2)c1C#N	-6.51
O=C(C1CCN(c2nc3ccccc3n3cccc23)CC1)N1CCC(Cc2ccccc2)CC1	-7.32
COc1cc(CNC2CCCCC2C)cc(OC)c1 (centres unmarked)	1.88
COc1ccc2c(C)c(CC(=O)N3CCCCC3)c(=O)oc2c1OC	-0.808
CCN1CCN(c2ccc(NC(=O)C3CCCCC3C(=O)O)cc2)CC1 (centres unmarked)	-1.82
COc1ccc(C(=O)/N=c2\sc(C)c(-c3ccc(C)cc3)n2C)cc1OC	3.58

Structure (SMILES)	% Inhibition @ 10 uM [%]
O=C(c1ccccc1)c1ccc2nc(Cl)c3nnnn3c2c1	3.51
CC(=O)N1CN(CCC(C)C)Cc2c1sc1c2CCCC1	3.24
COc1ccc(N2CCN(Cc3ccsc3)CC2)cc1	-0.969
Cn1c(=O)c2c(Nc3ccc(F)cc3)cc(=O)n(C)c2n(C)c1=O	-0.496
CC1(C)CC(=O)C2=C(C1)N(c1sc3c(c1C#N)CCCC3)C(=O)CC2c1ccccc1 (centres unmarked)	5.49
O=C(O)CCNc1nc(O)c2[nH]cnc2n1	-5.47
CCCCOc1ccc(C2c3c(oc4ccccc4c3=O)C(=O)N2c2ccccn2)cc1 (centres unmarked)	1.62
Nc1nc(-c2ccc(Cl)c(Cl)c2)cs1	3.42
CC(C)C[C@H](NC(=O)N1CCN(c2ccccc2Cl)CC1)C(=O)NCC#N	-3.48
O=c1ncn(-c2ccccc2C(F)(F)F)c2ncccc12	-7.62
COc1ccc(CC(=O)Nc2c(O)oc3ccccc3c2=O)cc1OC	-0.426
Cc1ccnc(NC(=O)Cn2cnc3c(=O)n(C)c(=O)n(C)c32)c1	1.72
CC(NC(=O)Cc1ccc(F)cc1)C(c1cccs1)N1CCN(C)CC1 (centres unmarked)	-1.08
COc1ccc(-n2nc3c(c2NC(=O)c2ccc(OC(C)C)cc2)CS(=O)(=O)C3)cc1	7.66
CCOC(C(=O)c1ccccc1)c1ccccc1 (centres unmarked)	8.74
O=C(NCc1cccnc1)C1c2ccccc2C(=O)N1Cc1ccc2c(c1)OCO2 (centres unmarked)	-1.29
O=C(Nc1ccccc1F)c1ccccc1Cl	-1.48
CCOc1ccccc1/C=c1\sc2nc(=O)c(Cc3ccc(C)cc3)nn2c1=O	-4.14
NC(=O)C1CCCN(C2CCc3ccccc3C2)C1 (centres unmarked)	-1.5
CN1CCC(N(C)Cc2ccc(Cl)c(Cl)c2)CC1	-0.969
CCC(=O)C1=C(Nc2cccc3ccccc23)CCCC1=O	-0.0959
COc1cc2c(cc1OC)C(C(=O)N1CCN(C)CC1)C(c1ccccc1F)N(C)C2=O (centres unmarked)	4.79
CN(C)c1cc(N)c2c(n1)CCC2	-5.16
Cc1ccc(NS(=O)(=O)c2cccc(C(=O)Nc3cccc(C)c3)c2)cc1	-1.77
Cn1nc(C(=O)NC2CCCCC2)c2ccccc2c1=O	-4.78
